This test relates to L1210 leukemia ip in BDF1 mice, survival T/C. The test can be described thus: NCI In Vivo Anticancer Drug Screen. Data for tumor model L1210 Leukemia (intraperitoneal) in B6D2F1 (BDF1) mice. As to conditions: endpoint: mean survival time, higher = longer survival.

Inconclusive results and toxic doses are left out. A number of entries come with more than one value. This list holds those alone. There may be further records. Values given together are repeats in other runs, samples, wells, individuals or studies. Marks such as (2×) say how often a value occurs here.

On to `COc1cc2c(c(OC)c1OC)-c1ccc(OC)c(=O)cc1[C@@H](NC(=O)CF)CC2`, for which, under “dose: 0.18 mg/kg/injection, schedule: Q01DX009 (ip), vehicle: saline”, the T/C is 111 % of control and 151 % of control.

For the compound `O=c1[nH][nH]c(=O)n1O`, the T/C (dose: 200.0 mg/kg/injection, schedule: Q01DX009 (ip), vehicle: saline) is 100 % of control (2×) and 152 % of control.

Consider `S=P(N1CCOCC1)(N1CC1)N1CC1`, for which the T/C (dose: 70.0 mg/kg/injection, schedule: Q01DX001 (ip), vehicle: saline) is 123 % of control and 168 % of control; the T/C (dose: 80.0 mg/kg/injection, schedule: Q01DX003 (ip), vehicle: saline) was 106 % of control and 196 % of control.

With `COc1cc(NS(C)(=O)=O)ccc1Nc1c2ccc([N+](=O)[O-])cc2nc2c(C)cccc12`, for the setting “dose: 10.0 mg/kg/injection, schedule: Q01DX009 (ip), vehicle: saline”, the T/C is 92 % of control and 175 % of control.

For the compound `NC(CSC(c1ccccc1)(c1ccccc1)c1ccccc1)C(=O)OC(c1ccccc1)c1ccccc1` (stereo not drawn), for the setting “dose: 400.0 mg/kg/injection, schedule: Q01DX001 (ip), vehicle: carboxymethylcellulose (CMC)”, the T/C is 118 % of control and 151 % of control.

As for `NNC(=O)NO`, for the setting “dose: 50.0 mg/kg/injection, schedule: Q01DX009 (ip), vehicle: saline”, the T/C is 124 % of control and 154 % of control.

Take `Nc1cc(Cl)c(Cl)c(Cl)c1`: for the setting “dose: 200.0 mg/kg/injection, schedule: Q01DX001 (ip), vehicle: carboxymethylcellulose (CMC)”, the T/C was 96 % of control and 153 % of control.

These data come from PubChem BioAssay AID248 (DTP/NCI, 2004).
